# According to publication PMC4336329 (PLoS ONE, 2015):
# The whole screen tested about 310,000 compounds, of which about 14,000 (4.5%) showed an effect of 50% or more. The effect is printed as a negative number. The list shows a part of the results.
# Biological target: human ether-à-go-go-related gene (hERG) potassium channel (human, UniProt Q12809)
# Assay: primary screen, population patch clamp on CHO cells stably expressing hERG
# 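Further: peak tail current of the secondary pulse compared with the same well before compound.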
# Sequence of human ether-à-go-go-related gene (hERG) potassium channel (Q12809 whole entry, looked up): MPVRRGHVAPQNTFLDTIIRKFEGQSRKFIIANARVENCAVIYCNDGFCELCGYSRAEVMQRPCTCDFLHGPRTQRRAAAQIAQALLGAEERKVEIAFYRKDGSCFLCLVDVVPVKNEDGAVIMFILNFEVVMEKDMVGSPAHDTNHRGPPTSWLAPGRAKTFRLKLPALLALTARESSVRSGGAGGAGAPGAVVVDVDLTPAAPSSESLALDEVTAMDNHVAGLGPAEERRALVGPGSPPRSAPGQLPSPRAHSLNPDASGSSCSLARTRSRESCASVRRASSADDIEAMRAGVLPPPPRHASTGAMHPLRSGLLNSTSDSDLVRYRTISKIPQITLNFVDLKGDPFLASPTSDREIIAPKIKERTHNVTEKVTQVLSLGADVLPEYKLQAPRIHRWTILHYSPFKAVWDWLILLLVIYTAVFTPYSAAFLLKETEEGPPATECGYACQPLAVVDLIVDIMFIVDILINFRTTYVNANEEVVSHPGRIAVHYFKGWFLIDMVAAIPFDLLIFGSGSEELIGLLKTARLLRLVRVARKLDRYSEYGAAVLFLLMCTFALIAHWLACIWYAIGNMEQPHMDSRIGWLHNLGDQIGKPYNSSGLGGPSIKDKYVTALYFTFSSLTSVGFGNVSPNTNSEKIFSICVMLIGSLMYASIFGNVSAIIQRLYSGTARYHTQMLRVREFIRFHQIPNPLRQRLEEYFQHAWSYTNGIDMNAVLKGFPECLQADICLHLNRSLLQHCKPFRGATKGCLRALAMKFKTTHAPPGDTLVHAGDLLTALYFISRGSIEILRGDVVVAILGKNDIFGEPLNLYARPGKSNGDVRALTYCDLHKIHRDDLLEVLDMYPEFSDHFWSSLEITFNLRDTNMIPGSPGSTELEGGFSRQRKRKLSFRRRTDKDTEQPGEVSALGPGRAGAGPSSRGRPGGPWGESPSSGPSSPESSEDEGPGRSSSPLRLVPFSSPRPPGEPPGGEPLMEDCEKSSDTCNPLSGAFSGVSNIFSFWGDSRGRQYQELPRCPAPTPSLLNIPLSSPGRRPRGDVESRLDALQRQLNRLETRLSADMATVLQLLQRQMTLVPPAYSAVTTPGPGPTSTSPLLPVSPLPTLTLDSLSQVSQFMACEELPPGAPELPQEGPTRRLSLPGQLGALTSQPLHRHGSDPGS
row,SMILES,"hERG current change (%, negative = inhibition) at 10uM [%]"
1,O=C(O)CSc1nc2ccccc2[nH]1,15.4
2,Cc1cccc(NC(=O)c2nc[nH]c2C(=O)NCC(=O)OC(C)(C)C)c1,12.1
3,CCOC(=O)Cc1csc(NS(=O)(=O)c2ccc(Cl)cc2)n1,-5.9
4,CCCN(CCC)CCNC(=O)c1cc2c(=O)n(C)c3ccccc3c2n1C,-35.1
5,O=C(C1CCC(CNS(=O)(=O)c2ccccc2)CC1)N1CCOCC1 (stereo not drawn),17.3
6,COc1ccc(C(=O)NCCNC(=O)c2cc(OCC(F)(F)F)ccc2OCC(F)(F)F)cc1,3.98
7,Cc1c(C)n(Cc2ccccc2)c2ncnc(NCCN(C)C)c12,-16
8,CCC1CCCCN1C(=O)CCNC(=O)Cn1cnc2ccccc2c1=O (stereo not drawn),20.6
9,COc1ccccc1CNS(=O)(=O)CC12CCC(CC1=O)C2(C)C (stereo not drawn),-12.6
10,CC(=O)NCCOC(=O)c1nn(Cc2ccccc2)c(=O)c2ccccc12,-22.4
11,COc1cc(NC2c3ccccc3C(=O)N2Cc2ccccc2Cl)cc(OC)c1OC (stereo not drawn),-0.846
12,c1ccc(-c2nn3c(C4CCCCC4)nnc3s2)nc1,7.48
13,Cc1cc(C)cc(-n2ccnc2SCC(=O)O)c1,6.99
14,CCOC(=O)c1c(C)[nH]c(C(=O)COC(=O)c2ccncc2)c1C,-2.44
15,CC(=O)c1c(C)cc(C)c(CSc2nc(C)cc(=O)[nH]2)c1C,-4.73
16,COC(=O)c1ccccc1NC(=O)Cc1nc(-c2ccccc2)sc1-c1ccc(C)cc1,-6.29
17,O=C(Nc1ccc([N+](=O)[O-])cc1Br)c1cccnc1,-17.2
18,COc1ccc(S(=O)(=O)/N=C2/NC(=O)/C(=C/c3ccco3)S2)cc1,11.5
19,COc1cc(C(=O)NCc2ccc(C)cc2)ccc1OC(F)F,-18.7

row,SMILES,"hERG current change (%, negative = inhibition) at 10uM [%]"
1,O=C(CNS(=O)(=O)c1ccccc1F)Nc1ccc(N2CCOCC2)cc1,-3.06
2,CC1(C(=O)Nc2nc3ccccc3s2)CC1(Br)Br (stereo not drawn),13.5
3,COc1ccc(C(=O)C2CCCN(C(=O)c3cnsn3)C2)c(C)c1 (stereo not drawn),4.06
4,CC(C)Oc1cccc(C(=O)NC(=S)Nc2cccc(C(F)(F)F)c2)c1,11.7
5,CCc1noc(C)c1C(=O)NCCc1c[nH]c2ccccc12,4.07
6,O=C(NCc1ccccc1)C(c1ccc(F)cc1)N(C(=O)c1csnn1)C1CCCC1 (stereo not drawn),-0.388
7,Cc1cc(Nc2cccc(Cl)c2)nc(N2CCOCC2)n1,-17.4
8,CC(=O)NC1C(=O)N=C(SCC(=O)Nc2c(C)cccc2C)NC1=O (stereo not drawn),-15
9,Nc1cc(-c2ccccc2)nn1S(=O)(=O)c1ccc(Br)cc1,17
10,Cc1ccc(OC(=O)CCC(=O)Nc2ccc(C(N)=O)cc2)cc1,18.2
11,COCC(C)NC(=O)NC1(C(F)(F)F)Oc2ccc(Cl)cc2O1 (stereo not drawn),9.63
12,O=S(=O)(c1ccc(Cl)cc1)N1CCN(Cc2ccc(O)c3ncccc23)CC1,-18.1
13,C/C(CC(c1ccccc1)c1c(O)c2ccccc2oc1=O)=N\NC(N)=S (stereo not drawn),14.9
14,COc1ccc(NC(=O)C2CCC(CNc3c(N4CCOCC4)c(=O)c3=O)CC2)cc1Cl (stereo not drawn),39
15,CCOc1ccc(NC(=O)CSc2nnc(Cn3cnc4ccccc43)n2C)cc1,-18.5
16,Cc1ccc(CCC(=O)Nc2ccc(N(C)C)cc2)o1,-5.27
17,O=C(CSc1nc2ccccc2n1-c1ccccc1)NCC1CCCO1 (stereo not drawn),-22.1
18,Clc1ccc(CNCc2cccs2)cc1Cl,7.52
19,CCCCN(C(=O)/C=C/c1ccc(OCC(C)C)c(OCC)c1)c1c(N)n(CCC)c(=O)[nH]c1=O,-5.15

row,SMILES,"hERG current change (%, negative = inhibition) at 10uM [%]"
1,COc1ccc(NC(=S)N2CCN(c3ncccn3)CC2)cc1,-0.0506
2,O=C(NCCCn1ccnc1)c1nn2c(C(F)(F)F)cc(-c3ccccc3)nc2c1Cl,-29.6
3,O=C(Cc1c(F)c(F)c(F)c(F)c1F)Nc1nc(-c2ccccc2)cs1,21.1
4,O=C1NC(=O)C(CCc2ccncc2)(Cc2ccc3c(c2)OCO3)C(=O)N1CCc1ccccc1 (stereo not drawn),-32.5
5,CCOC(=O)c1nn(-c2ccccc2C)c2nc(CC(C)C)c(C#N)c(=O)n12,-3.22
6,CN(C)C(=O)c1ccc(NC(=O)COC(=O)C2=COCCO2)cc1,11.4
7,COc1ccc(C2/C(=C(\O)c3ccc4c(c3)OCCO4)C(=O)C(=O)N2Cc2cccnc2)cc1 (stereo not drawn),16.2
8,CCNC(=S)NNC(=O)c1cc(-c2cccc(OC)c2)nc2ccccc12,-23
9,CCN1CCCC1CNC(=O)c1cc(NC(C)=O)c(N(C)C)cc1OC (stereo not drawn),10.6
10,COCCCNC(=O)C1CCC(CNS(=O)(=O)c2ccc3c(c2)N(C(C)=O)CCO3)CC1 (stereo not drawn),10.1
11,O=C(O)COc1cccc2ccccc12,4.81
12,CCn1c(NC(=O)C(C)C)c(-c2ccccc2)c(=O)c2ccccc21,-0.195
13,NC(=S)N/N=C/c1coc2cc(Br)ccc2c1=O,13.6
14,S=C(Nc1ccccc1)Nc1ccc(Cl)cc1Cl,20.9
15,CC1(C)NC(=O)N(CC(O)COC2CCCCC2)C1=O (stereo not drawn),8.64
16,COc1ccc(N2CCC(CNC(=O)Nc3ccc(OC)cc3OC)C2)cc1 (stereo not drawn),-6.99
17,CCn1c(=O)c(-c2ccccc2)c(O)c2ccccc21,0.885
18,Cc1ccc(-c2cc(C(=O)NCc3ccccn3)c3ccccc3n2)cc1,-13.5
19,COc1ccc(/C=N/NC(=O)CNC(=O)c2ccncc2)cc1,6.02
